Measured values published in publication PMC6429309 (Molecules, 2019).

Columns and labels:
[1] = tested on: tobacco mosaic virus (TMV); test: whole plant or invertebrate; assay type: in vivo; conditions: for Curative Activity against TMV: in vivo; for EC50 / pest or weed control at 500 µg/mL: Tobacco mosaic virus; for EC50: read-out: Curative EC50 against TMV; for pest or weed control at 500 µg/mL: topical, read-out: Curative Activity against TMV
[2] = tested on: tobacco mosaic virus (TMV); test: whole plant or invertebrate; assay type: in vivo; conditions: for Protective Activity against TMV: in vivo; for EC50 / pest or weed control at 500 µg/mL: Tobacco mosaic virus; for EC50: read-out: Protective EC50 against TMV; for pest or weed control at 500 µg/mL: topical, read-out: Protective Activity against TMV
[3] = molecular target: TMV coat protein (TMV CP) (Tobacco mosaic virus, UniProt P69687); test: biochemical
Sequence of UniProt P69687 (P69687 whole entry): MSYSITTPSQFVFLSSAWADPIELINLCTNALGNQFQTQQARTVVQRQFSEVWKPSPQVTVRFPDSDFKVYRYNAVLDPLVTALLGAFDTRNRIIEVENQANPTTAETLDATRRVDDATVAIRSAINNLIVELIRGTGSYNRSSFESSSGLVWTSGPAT

[4] = 500 μg/mL, Nicotiana tabacum L. leaves, average of three replicates

| Compound | Curative Activity against TMV [1, 4] | Protective Activity against TMV [2, 4] | other results |
| --- | --- | --- | --- |
| COP(=O)(OC)Oc1ccccc1/C=C/C(=O)/C=C/c1ccc(Cl)cc1 [3a, 2-((1E,4E)-5-(4-chlorophenyl)-3-oxopenta-1,4-dien-1-yl)phenyl dimethyl phosphate] | 61.2% and 61.2 ± 8.5% | 42.5 ± 1.6% | EC50 [1]: 270 µg/mL |
| CCOP(=O)(OCC)Oc1ccccc1/C=C/C(=O)/C=C/c1ccc(Cl)cc1 [3b] | 49.6 ± 2.2% | 48.6 ± 1.8% |  |
| COc1ccc(/C=C/C(=O)/C=C/c2ccccc2OP(=O)(OC)OC)cc1 [3c] | 62.2% and 62.2 ± 8.5% | 42.8 ± 8.5% | EC50 [1]: 335 µg/mL (≈ 864 µM) |
| CCOP(=O)(OCC)Oc1ccccc1/C=C/C(=O)/C=C/c1ccc(OC)cc1 [3d] | 35.4 ± 1.7% | 39.1 ± 7.0% |  |
| COP(=O)(OC)Oc1ccccc1/C=C/C(=O)/C=C/c1ccccc1Cl [3e] | 52.3 ± 3.7% | 51.9 ± 6.4% |  |
| CCOP(=O)(OCC)Oc1ccccc1/C=C/C(=O)/C=C/c1ccccc1Cl [3f] | 28.3 ± 3.6% | 53.7 ± 8.6% |  |
| CCOP(=O)(OCC)Oc1ccccc1/C=C/C(=O)/C=C/c1cccc([N+](=O)[O-])c1 [3h] |  | 66.7 ± 2.1% | pest or weed control at 500 µg/mL [1]: 51.9 ± 2.2%; Kd [3]: 28 nM; EC50 [2]: 104 µg/mL (≈ 242 µM); pest or weed control at 500 µg/mL [2]: 66.7% |
| COP(=O)(OC)Oc1ccccc1/C=C/C(=O)/C=C/c1ccc([N+](=O)[O-])cc1 [3i] | 50.9 ± 2.0% | 53.6 ± 9.3% |  |
| CCOP(=O)(OCC)Oc1ccccc1/C=C/C(=O)/C=C/c1ccc([N+](=O)[O-])cc1 [3j] |  | 63.8 ± 6.5% | pest or weed control at 500 µg/mL [1]: 20 ± 2.3%; Kd [3]: 230 nM; EC50 [2]: 290 µg/mL (≈ 672 µM); pest or weed control at 500 µg/mL [2]: 63.8% |
| CCOP(=O)(OCC)Oc1ccccc1/C=C/C(=O)/C=C/c1ccc(C)cc1 [3k] | 55.8 ± 3.2% | 56.7 ± 7.3% |  |
| COP(=O)(OC)Oc1ccccc1/C=C/C(=O)/C=C/c1ccccc1 [3l] | 69.3% and 69.3 ± 8.1% | 45.1 ± 7.3% | EC50 [1]: 239 µg/mL (≈ 666 µM) |
| CCOP(=O)(OCC)Oc1ccccc1/C=C/C(=O)/C=C/c1ccccc1 [3m] | 48.1 ± 9.1% | 56.7 ± 6.4% |  |
| COP(=O)(OC)Oc1ccccc1/C=C/C(=O)/C=C/c1ccc(Br)cc1 [3n] | 44.1 ± 5.5% | 56.3 ± 7.8% |  |
| CCOP(=O)(OCC)Oc1ccccc1/C=C/C(=O)/C=C/c1ccc(Br)cc1 [3o] | 52.1 ± 8.9% | 49.6 ± 7.4% |  |
| COP(=O)(OC)Oc1ccccc1/C=C/C(=O)/C=C/c1cccc(C(F)(F)F)c1 [3p] | 34.3 ± 9.1% | 58.8% and 58.8 ± 2.4% |  |
| CCOP(=O)(OCC)Oc1ccccc1/C=C/C(=O)/C=C/c1cccc(C(F)(F)F)c1 [3q] | 51.7 ± 3.9% | 55.8 ± 9.3% |  |
| COP(=O)(OC)Oc1ccccc1/C=C/C(=O)/C=C/c1cccc(C)c1 [3r] | 50.7 ± 2.1% | 55.7 ± 9.5% |  |
| CCOP(=O)(OCC)Oc1ccccc1/C=C/C(=O)/C=C/c1cccc(C)c1 [3s] | 63.4% and 63.4 ± 1.7% | 55.4 ± 5.5% | EC50 [1]: 250 µg/mL (≈ 624 µM) |
| CNCC(=O)N[C@@H](CO)C(=O)N[C@H]1[C@H](O)[C@@H](O)[C@H](n2ccc(N)nc2=O)O[C@@H]1C(N)=O [Ningnanmycin, ningnanmycin, reference compound] |  |  | EC50 [1]: 386 µg/mL (≈ 871 µM); pest or weed control at 500 µg/mL [1]: 56.1%; Curative Activity against TMV [1]: 56.1 ± 2.5%; Kd [3]: 520 nM; pest or weed control at 500 µg/mL [2]: 56.2%; Protective Activity against TMV [2]: 56.2 ± 6.4% |

≈ marks a conversion by molar mass, not a printed value. Where “and” joins values, the source holds several entries; their conditions need not be identical. Equal entries are not always repeated. Where two headings read alike, the source gives them in different places.
